Some of the results follow. The data describe in vitro nicking of single-stranded DNA by Rep domains for 1 h at 37 °C with 3 µM enzyme; only the middle of the 90-letter strands is printed. Numbers give uncut DNA relative to the enzyme-free pool, as log2; more negative means more cut, near 0 not cut, and no call is made. Because reads are shares of a total, they shift together, so uncut sequences can rise above 0 when many others are cut.
Legend:
Assay in all cases: uncleaved DNA left, log2 of reads against the no-enzyme library (log2 ratio); higher = less cleavage (more negative = more Rep cleavage of the k-mer); sequences stand for … in CTCGTCCG…ACCGGAGA
[1] = tested on: T1, Rep nickase domain of Muscovy duck circovirus
T1 sequence (residues 1-111, tag not shown): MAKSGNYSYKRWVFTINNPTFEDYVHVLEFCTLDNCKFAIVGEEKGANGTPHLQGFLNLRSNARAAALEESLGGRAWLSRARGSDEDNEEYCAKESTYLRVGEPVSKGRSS
Protocol: (§1)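 A pool of 90-nt single-stranded DNAs with seven random bases just before the constant AC of the nick site (name = the seven bases) was cut by 3 µM recombinant His6-SUMO-tagged Rep nickase domain (300 nM DNA, 50 mM HEPES pH 8.0, 50 mM NaCl, 1 mM MnCl2, 1 h, 37 °C, three replicates). Uncut DNA was amplified and sequenced.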

[2] = tested on: T2, Rep nickase domain of banana bunchy top virus
T2 sequence (residues 1-94, tag not shown): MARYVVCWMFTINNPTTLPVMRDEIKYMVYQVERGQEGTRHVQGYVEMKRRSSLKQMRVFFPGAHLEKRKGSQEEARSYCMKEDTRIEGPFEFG
Protocol: as §1

[3] = tested on: T3, Rep nickase domain of cabbage leaf curl virus
T3 sequence (residues 1-116, tag not shown): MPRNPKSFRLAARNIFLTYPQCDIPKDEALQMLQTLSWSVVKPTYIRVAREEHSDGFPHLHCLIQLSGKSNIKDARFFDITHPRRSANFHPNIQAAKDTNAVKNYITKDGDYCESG
Protocol: as §1

[4] = tested on: T4, Rep nickase domain of chickpea chlorotic dwarf virus
T4 sequence (residues 1-124, tag not shown): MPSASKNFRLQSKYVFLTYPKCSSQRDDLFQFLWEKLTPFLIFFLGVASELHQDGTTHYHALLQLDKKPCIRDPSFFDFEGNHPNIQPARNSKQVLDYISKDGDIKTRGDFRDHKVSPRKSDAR
Protocol: as §1

[5] = tested on: T5, Rep nickase domain of faba bean necrotic yellows virus
T5 sequence (residues 1-98, tag not shown): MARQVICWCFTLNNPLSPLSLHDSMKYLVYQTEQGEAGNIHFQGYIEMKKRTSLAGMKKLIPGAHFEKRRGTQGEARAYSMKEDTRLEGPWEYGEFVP
Protocol: as §1

[6] = tested on: T6, Rep nickase domain of maize striate mosaic virus
T6 sequence (residues 1-117, tag not shown): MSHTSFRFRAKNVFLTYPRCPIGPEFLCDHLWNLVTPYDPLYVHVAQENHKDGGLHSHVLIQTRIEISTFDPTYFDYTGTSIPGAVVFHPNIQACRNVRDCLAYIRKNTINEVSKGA
Protocol: as §1

[7] = tested on: T7, Rep nickase domain of porcine circovirus 2
T7 sequence (residues 2-116, tag not shown): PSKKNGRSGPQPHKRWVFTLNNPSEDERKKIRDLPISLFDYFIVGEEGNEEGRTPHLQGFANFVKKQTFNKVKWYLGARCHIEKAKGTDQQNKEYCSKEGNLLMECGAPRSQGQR
Protocol: as §1

[8] = tested on: T8, Rep nickase domain of tomato golden mosaic virus
T8 sequence (residues 1-124, tag not shown): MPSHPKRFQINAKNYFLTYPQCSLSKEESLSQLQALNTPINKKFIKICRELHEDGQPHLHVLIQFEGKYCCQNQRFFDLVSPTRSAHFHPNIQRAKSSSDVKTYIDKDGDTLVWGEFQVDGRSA
Protocol: as §1

[9] = tested on: T9, Rep nickase domain of tomato yellow leaf curl virus
T9 sequence (residues 1-136, tag not shown): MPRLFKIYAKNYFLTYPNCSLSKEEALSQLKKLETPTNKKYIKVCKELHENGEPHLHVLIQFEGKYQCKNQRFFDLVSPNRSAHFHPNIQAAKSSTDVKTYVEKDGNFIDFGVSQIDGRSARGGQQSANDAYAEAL
Protocol: as §1

[10] = tested on: T10, Rep nickase domain of wheat dwarf virus
T10 sequence (residues 1-137, tag not shown): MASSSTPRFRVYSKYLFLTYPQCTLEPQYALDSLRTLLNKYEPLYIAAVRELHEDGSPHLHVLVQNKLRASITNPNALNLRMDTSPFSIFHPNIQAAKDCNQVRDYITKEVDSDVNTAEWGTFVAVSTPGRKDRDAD
Protocol: as §1

Row | Sequence | uncleaved DNA left (log2) [1] | uncleaved DNA left (log2) [2] | uncleaved DNA left (log2) [3] | uncleaved DNA left (log2) [4] | uncleaved DNA left (log2) [5] | uncleaved DNA left (log2) [6] | uncleaved DNA left (log2) [7] | uncleaved DNA left (log2) [8] | uncleaved DNA left (log2) [9] | uncleaved DNA left (log2) [10]
1 | AAACCAG | -0.0112 | 0.0236 | -0.747 | -0.858 | -0.0568 | -1.05 | -0.281 | 0.0156 | 0.0823 | -0.0594
2 | ACAGTGG | 0.00583 | -0.102 | -0.728 | -0.545 | -0.0436 | -1.23 | 0.182 | -0.0589 | 0.0403 | -0.111
3 | CAAACAT | 0.0617 | 0.196 | -0.286 | -1.51 | 0.121 | 0.199 | 0.0254 | -0.000721 | 0.112 | 0.0767
4 | GTAAGGT | 0.0375 | 0.067 | -0.193 | -0.852 | -0.0051 | 1.6 | 0.12 | 0.0563 | 0.0356 | -0.0457
5 | TCCGGGA | -0.0367 | -0.104 | 0.459 | 0.868 | -0.0621 | 1.64 | 0.0958 | -0.0216 | 0.0585 | 0.0165
6 | ACACGAC | -0.00809 | 0.0563 | -0.191 | -0.243 | 0.0418 | -0.775 | 0.111 | 0.0492 | -0.0428 | 0.0204
7 | CCAGCTT | -0.123 | -0.24 | 0.106 | -1.05 | -0.0252 | 0.712 | -0.093 | -0.00827 | -0.0615 | -0.0736
8 | TTATGTT | -3.24 | -0.864 | -3.5 | -3.14 | -0.243 | -2.52 | -3.34 | -3.16 | -0.113 | -3.41
9 | AGGCACC | 0.0643 | 0.0114 | 0.335 | 0.629 | -0.105 | 0.689 | 0.132 | -0.0886 | 0.0325 | 0.0963
10 | TCGAAAT | 0.179 | 0.191 | 0.353 | 0.0746 | 0.0219 | -0.0302 | -0.2 | 0.267 | 0.247 | 0.272
11 | TGATTCG | 0.0252 | -0.0527 | -0.849 | 0.163 | -0.0456 | -0.886 | 0.0917 | -0.104 | -0.0755 | -0.159
12 | ACATTAT | -0.248 | -0.0267 | -0.18 | -1.22 | -0.00475 | -0.869 | -0.656 | -0.00143 | -0.226 | -0.0119
13 | GTGTGCC | 0.0218 | 0.108 | 0.288 | 0.841 | -0.0477 | 1.77 | 0.116 | 0.12 | 0.0152 | 0.111
14 | TACAGGT | 0.0127 | -0.0223 | 0.193 | 0.879 | -0.000103 | 1.47 | 0.0343 | 0.0285 | -0.0717 | -0.0152
15 | ATCACGA | 0.0257 | -0.0516 | -0.418 | -0.45 | 0.0878 | -1.09 | 0.114 | -0.00447 | 0.0162 | -0.115

— the supplement of paper PMC7826260
